The supplement of paper PMC11417369
This is one part of the list.

What follows are sequences tested on PfHDP1 homeodomain (GST-tagged) (assay: gcPBM binding intensity (ln(normalized median fluorescence intensity)); higher = stronger DNA binding).
Outline: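 GST-tagged P. falciparum DNA-binding domains, expressed in E. coli (about 25 μg on average), were applied for 1 h to an Agilent 4 × 180k array of primer-extended double-stranded 36-bp intergenic genomic probes plus negative controls. The binding buffer was 1× PBS with 1% milk, 0.2 mg/ml BSA, 0.5% salmon testes DNA and 0.03% Triton X-100. Bound protein was detected with Alexa488 anti-GST antibody and scanned at 488 nm. Binding intensity is the highest Masliner-normalised natural-log median intensity across replicate spots of either probe orientation.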

| Sequence | gcPBM binding intensity (ln) |
| --- | --- |
| ACTATTCATGCATATACACACACATATATATATATT [CACACA_site9309] | 7.89 |
| TAGATTTTTTAATGTTGTACAAATATACGATATATA [XGTACX_site3258] | 6.74 |
| TTGTTTCTCTTTAAAAGTACAAAAATGGTTACATAT [XGTACX_site3109] | 6.5 |
| TTTTTAATTTCAATGGTGCAGTAATAATATAATAGT | 8.97 |
| CATTTAAGACAAATTACACACGTATGCCAAATATAT [CACACA_site431] | 6.76 |
| ATATTTTTTTTTGTTAGTACTCATATTTGTAGTTTT [XGTACX_site7280] | 7.01 |
| AATATATATAATTATAGTACAGAAAATTAAAAAAGA [XGTACX_site2943] | 6.99 |
| TCTTTAAATTTCTCAACACACAGTTATAAAAAATAA [CACACA_site2856] | 6.18 |
| AACAATAAAAATAATTGTACAAGTTTAAAAAAAATT [XGTACX_site1987] | 6.58 |
| TATATCTTATTTAACACACACAAAGAAAATAGAAAA [CACACA_site3732] | 6.81 |
| TATAAATATATTTATACACACATTAGTGTATACATG [CACACA_site7397] | 6.92 |
| AGGTGAAAAATATATAATAATGTAACAAAAAAAAAT [XGTACX_negctrl_site394] | 7.08 |
| AACTATAACTAAAAAAATCACATAAAATATTTTATT [TGCATGCA_negctrl_site363] | 6.07 |
| TCGTGTTAAATTTTTACACACAAACTTGCAATAATT [CACACA_site3824] | 7.46 |
| TATATATATTAGTGTGCACACTTTTTATTTTTATCC [CACACA_site8506] | 10.5 |
| ATATATTTATAATAGGTGCATATGTTTTATTTTTCC [GTGCAC_site9849] | 10 |
| TGTTCTATTCTATTATTATTTACAAATTATAAATAA [GTGCAC_negctrl_site232] | 6.57 |
| AAAGAATTATATAAGGTGCACGAATGTTTCTTTAAT | 9.15 |
| AAAAAAAAAAAAAAAAAAAAAATACATATATATATA [CACACA_negctrl_site290] | 8.87 |
| ATATGTGTGTGTATTTGTACCCAATTTTTATATATA [XGTACX_site4948] | 7.15 |
| AGATATGTTTTTAATTGTACATAAATACACAAATAT [XGTACX_site5981] | 6.45 |
| TGTAATAAATAGTACACACACACATATATATATATT [CACACA_site1388] | 6.86 |
| TAAAGTTAAAAATTATGTACATATATATTGTATATT [XGTACX_site5528] | 6.29 |

| Sequence | gcPBM binding intensity (ln) |
| --- | --- |
| GATAAAATAGGACCATATTCTTTAAAACGATAAAAT [XGTACX_negctrl_site405] | 6.42 |
| ATATATATATATTTATGTACATATACATAATGTATA [XGTACX_site6387] | 8.67 |
| TTATTTTATATATCACGTACATAGTTGTCTTCTTTT [XGTACX_site2906] | 6.29 |
| TAAGAAGTATTTTCCTGTACATATTTTATATGTATG [XGTACX_site4658] | 6.03 |
| AAAATATAAAATAATGCACACATAAACAAAAAATCA [CACACA_site8382] | 10.5 |
| TACAAGTATAAATAAGCACACATGTGGATATGTACA [CACACA_site4229] | 6.67 |
| ATGAATCCTTAATATGAACACACAAATATATTACAC [CACACA_site7943] | 6.7 |
| TCCTTATTTATATAATGTACTTTTTTTTTTCATTTT [XGTACX_site4275] | 6.51 |
| TTATTTCAAAGTAAATCAGTAAATATTTGTTTTCTT [CACACA_negctrl_site1572] | 6.1 |
| TTTTTTATTTATCCTATATATTACTAAATGAAGAAC [GTGCAC_negctrl_site333] | 6.35 |
| AATATATAGGTATTTACACACAATGTGAGATCTATA [CACACA_site3407] | 6.24 |
| ATTTATGAAAAGTAAAGTACACACAGGAAAAAAAAA [XGTACX_site3564] | 6.62 |
| GTCAACTTGTGATAAGTGCATATATATAATAAAATG | 8.35 |
| CGAAATAAATCTTATGCACACAAATAATTAATTAAA [CACACA_site8491] | 10.5 |
| AAAAAAATATAATATTTGAATAAATATAATAATATG [XGTACX_negctrl_site477] | 6.19 |
| ATTTAAATAATATGTACACACATTTAAAAAATTATA [CACACA_site2816] | 6.49 |
| CCAATGAGGATATATACACACATACATTAAAAAAAT [CACACA_site5090] | 6.73 |
| ATATATATGTATGTATGTACTTATTTATTTATTTAT [XGTACX_site7740] | 6.21 |
| TAAGAAAAAGGCACACGTACATAATTCAAAATAAAT [XGTACX_site982] | 6.57 |
| TTTTTTTTCACACATTGTACTTTTTTATAAAATATA [XGTACX_site4351] | 6.98 |
| TATACATATTTACAAGTGCATAATATTTTACAAAAA | 8.59 |
| CACTCTTAAAATAAGGTGCACTATATAACGTGATTA [GTGCAC_site9422] | 9.47 |
| ATAAAATAAATAAATATAAATATATATATATATATA [TGCATGCA_negctrl_site358] | 9.14 |

| Sequence | gcPBM binding intensity (ln) |
| --- | --- |
| TAATTATAATAAAAAGGTACAGAAAAGTTATACTCA [XGTACX_site6111] | 6.26 |
| AATTATCAAAGTCTATACATACATACATACATACAT [GTGCAC_negctrl_site243] | 6.96 |
| GTTATAACTCAAATATGTACATATTATAAAACATAT [XGTACX_site6693] | 6.82 |
| AAAAAAAAAAAAAAAGGTACACAAATACGTCCTGCA [XGTACX_site3354] | 6.49 |
| TTATAGAACTATATTGCACACATAATATATATATAT [CACACA_site9042] | 10.1 |
| TATAAAAATAAGCACACACACAAATATATATTTATT [CACACA_site922] | 6.77 |
| TTACTACTATATTATACACACATATATTTATTTATA [CACACA_site7274] | 7.01 |
| CCGTAGTTTTAAAATAGTACTTTTATGGTTAATAAA [XGTACX_site3162] | 6.29 |
| TTTTTTATTTTTTTATTGTTTTATTGTTTCATTGTT [XGTACX_negctrl_site128] | 6.65 |
| TATAAATAATAAAGATGTACTTTTTATGATTCCTAC [XGTACX_site7003] | 6.36 |
| TATAAAAAGCAAAACAAAAAAACAAATTGAAAAATT [TGCATGCA_negctrl_site158] | 6.38 |
| AAAAGAAAAGAGAGGAGTACAAAATATAATTATCTA [XGTACX_site5172] | 6.87 |
| CATATTGGTATGCTCATGCACTTTTATTTTGTTATT [GTGCAC_site9553] | 9.04 |
| TGTATATATTAATGTACACACATGCGTATGTTCGTT [CACACA_site3583] | 6.65 |
| AAAAAAAAAAAAAGAACACACACAGTGCACATTCGG [CACACA_site8163] | 10.3 |
| AATTAGATACTAACAAGTACATATATATATATATAT [XGTACX_site2252] | 9.18 |
| TTGTAATTATTAAACACACACAAAATATCTAGAATA [CACACA_site7231] | 6.99 |
| ATTTAGATTAACACTTGTACATAATACATACAAATA [XGTACX_site4147] | 6.43 |
| ATTTTTTTTTGTGTATATAAATAAATAAATATATAT [GTGCAC_negctrl_site603] | 6.47 |
| TTTCCCTAATGAAAGTGTACCTGTGAGAAAAAAAAG [XGTACX_site194] | 6.58 |
| AAAAAAAAAAAAAGCACACACACATATGTGTATATA [CACACA_site8225] | 6.86 |
| CCCTGCCTCTCTTTGGTGCGTTGTAACCCTCGAGGA | 6.77 |
| TAAATTGTATATGAGACTATACTATAAAAGTATGAA [XGTACX_negctrl_site22] | 6.19 |

| Sequence | gcPBM binding intensity (ln) |
| --- | --- |
| TGTCTGTGCGGGTGTACACATTTCATATTACCCAAT [CACACA_site5593] | 7.44 |
| TAATTTATAAAAAATTGTACATTAAACATATATATA [XGTACX_site5164] | 6.57 |
| TGCTCCTATTATATAGTGCATTTATTTTAATAAACG | 8.61 |
| AACCTTACACAAGGGGTGCAATATTATTTCGATAAA [GTGCAC_site9600] | 9.2 |
| TCTTTTCGTTCATGCTGTACTTAATTGCTCTAATTT [XGTACX_site4816] | 7.18 |
| CAATTTATTTTTATTACACACTATCCAAATAATTTC [CACACA_site2956] | 6.47 |
| TATATAATAATTTAGAGTACTGATAAAATATTCCAT [XGTACX_site6200] | 6.23 |
| AACATACGACAATACGCACACATATATGTACATATT [CACACA_site1917] | 7.2 |
| TTAAACAATTTAGACATACACACAAAAATAATATTA [CACACA_site385] | 6.9 |
| AGCATACATATTTTTTGTACATATATATATATATAT [XGTACX_site8536] | 9.18 |
| CCATAAAATCATAAGCGTACTTAATATATTTTACTT [XGTACX_site559] | 6.42 |
| TAATTTTTCCTTTTTGCACACATTAACGTCGACGAA [CACACA_site4025] | 10.8 |
| TACATATTTATATACACACACACCGTCCGTGTTAAA [CACACA_site7413] | 6.93 |
| CTAAAAATCTTTTGTTGTACTTTTAGATAATCAGGA [XGTACX_site3968] | 6.05 |
| AAAGGGATGTTCATTCTTTTTTTTTTTTTTGTATAT [CACACA_negctrl_site511] | 5.96 |
| AAGTAAAAAAATAGCACACACACAAAAACACAGACA [CACACA_site4839] | 7.59 |
| TTTCCCTACCAAAAATGTACTTATAAGCGTTTTTAT [XGTACX_site739] | 6.5 |
| AAAAAAAAAAAACACACACACACACTAATACATACA [CACACA_site8135] | 6.74 |
| TTTTTAAATTATTGCACACAAAAATGAAAGGAAAAA [CACACA_site1455] | 9.76 |
| ATTGGGTACAAATACACACACATATAAATATTAATA [CACACA_site7173] | 6.68 |
